Measurements published in a collection of fitness landscapes (doi:10.1038/s41467-024-54723-y).
Whole data set: some 18,000 sequences, median “TetR repression strength (sort-seq, GFP reporter)” near 0.23, cut for the highest 2% near 0.68. The list shows a part of the results.

The sequences below were run against TetR (class B, Tn10) (UniProt P04483) (assay: TetR repression strength (sort-seq, GFP reporter) (relative to tetO2 = 1); higher = stronger repression). Conditions: E. coli.
How it was run: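 Three independent transformations of E. coli SIG10-MAX were made with a low-copy plasmid library randomizing eight operator positions between a constitutive promoter and sfGFP, with constitutive TetR. Following 5 h at 37 °C in LB plus 50 µg/mL chloramphenicol, 10^6 cells went through FACS into 13 fluorescence bins, and each bin was sequenced by Illumina. Repression strength was defined as the top bin index plus one minus the read-weighted mean bin, divided by the unaltered operator's value. Averages included only members reaching ≥30 reads in all replicates with a CV ≤0.5.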

Chain of UniProt P04483 (P04483 whole entry): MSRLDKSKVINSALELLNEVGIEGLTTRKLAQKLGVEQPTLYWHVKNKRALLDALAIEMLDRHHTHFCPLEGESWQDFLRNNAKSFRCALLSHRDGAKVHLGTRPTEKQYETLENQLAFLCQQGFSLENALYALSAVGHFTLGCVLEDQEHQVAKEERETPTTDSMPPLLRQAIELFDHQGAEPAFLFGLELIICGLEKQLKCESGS

Which TetR repression strength does the source give for TCCCGGTCAGTCTGAGAGA here?
Its TetR repression strength is 0.207.

Which TetR repression strength does the source give for TCCCTGGAAGTTAAAGAGA here?
Its TetR repression strength is 0.248.

How did the TetR repression strength turn out when TCCCCCAGAGTTGGAGAGA was run?
The TetR repression strength was 0.318.

For TCCCTTGCAGTGGGGGAGA, which TetR repression strength is on record?
Its TetR repression strength is 0.0874.

TCCCGGAGAGTGGGTGAGA was tested. Which TetR repression strength did it give?
The TetR repression strength was 0.294.

How did the TetR repression strength turn out when TCCCGTAGAGTTTCGGAGA was run?
The TetR repression strength was 0.121.

Which TetR repression strength does the source give for TCCCTTAAAGTGCGGGAGA here?
Its TetR repression strength is 0.265.

TCCCCTTCAGTGTCTGAGA was tested. Which TetR repression strength did it give?
The TetR repression strength was 0.327.

Which TetR repression strength does the source give for TCCCCGCCAGTATTTGAGA here?
The TetR repression strength was 0.329.

Which TetR repression strength does the source give for TCCCGAAAAGTAGGAGAGA here?
The TetR repression strength was 0.311.

TCCCAGTCAGTTTGTGAGA was tested. Which TetR repression strength did it give?
The TetR repression strength was 0.204.

TCCCCGTCAGTCGCTGAGA was tested. Which TetR repression strength did it give?
The TetR repression strength was 0.432.

TCCCAAATAGTGCTTGAGA was tested. Which TetR repression strength did it give?
The TetR repression strength was 0.

With TCCCTCAAAGTATTTGAGA as the sequence, how does the TetR repression strength read?
Its TetR repression strength is 0.272.

For TCCCAATGAGTGACAGAGA, which TetR repression strength is on record?
Its TetR repression strength is 0.514.

How did the TetR repression strength turn out when TCCCATATAGTAGTGGAGA was run?
Its TetR repression strength is 0.117.

For TCCCGTGCAGTGAACGAGA, which TetR repression strength is on record?
The TetR repression strength was 0.31.

TCCCGTCAAGTGCTAGAGA was tested. Which TetR repression strength did it give?
Its TetR repression strength is 0.266.

How did the TetR repression strength turn out when TCCCACTTAGTAAGTGAGA was run?
Its TetR repression strength is 0.141.

For TCCCGAAGAGTTGCTGAGA, which TetR repression strength is on record?
The TetR repression strength was 0.486.

TCCCCCGGAGTCCGAGAGA was tested. Which TetR repression strength did it give?
Its TetR repression strength is 0.413.

TCCCATGCAGTGGAAGAGA was tested. Which TetR repression strength did it give?
Its TetR repression strength is 0.281.

Which TetR repression strength does the source give for TCCCCGCAAGTGCGTGAGA here?
The TetR repression strength was 0.343.

TCCCTAGTAGTCATCGAGA was tested. Which TetR repression strength did it give?
The TetR repression strength was 0.256.

How did the TetR repression strength turn out when TCCCGGACAGTTGTTGAGA was run?
Its TetR repression strength is 0.265.

With TCCCAAATAGTCGTGGAGA as the sequence, how does the TetR repression strength read?
Its TetR repression strength is 0.415.

With TCCCCTCAAGTAATTGAGA as the sequence, how does the TetR repression strength read?
The TetR repression strength was 0.155.

With TCCCACATAGTCTTTGAGA as the sequence, how does the TetR repression strength read?
The TetR repression strength was 0.244.

Which TetR repression strength does the source give for TCCCCCTGAGTCTCGGAGA here?
Its TetR repression strength is 0.122.

TCCCTCTAAGTCATGGAGA was tested. Which TetR repression strength did it give?
The TetR repression strength was 0.26.

How did the TetR repression strength turn out when TCCCAAGGAGTCTACGAGA was run?
Its TetR repression strength is 0.225.

For TCCCTCAAAGTGGAGGAGA, which TetR repression strength is on record?
Its TetR repression strength is 0.33.

Which TetR repression strength does the source give for TCCCGGTAAGTGGTCGAGA here?
Its TetR repression strength is 0.0942.

With TCCCCGATAGTTAGGGAGA as the sequence, how does the TetR repression strength read?
Its TetR repression strength is 0.269.

With TCCCCAGAAGTGGAAGAGA as the sequence, how does the TetR repression strength read?
Its TetR repression strength is 0.281.

Which TetR repression strength does the source give for TCCCACCCAGTGATTGAGA here?
The TetR repression strength was 0.357.

TCCCACTAAGTGATAGAGA was tested. Which TetR repression strength did it give?
Its TetR repression strength is 0.427.

Which TetR repression strength does the source give for TCCCGACAAGTTGGAGAGA here?
The TetR repression strength was 0.0165.

For TCCCCTGAAGTCACGGAGA, which TetR repression strength is on record?
The TetR repression strength was 0.226.

Which TetR repression strength does the source give for TCCCACGAAGTTGAAGAGA here?
Its TetR repression strength is 0.0582.

How did the TetR repression strength turn out when TCCCCATGAGTTGGGGAGA was run?
Its TetR repression strength is 0.0962.

With TCCCTGAGAGTTCGCGAGA as the sequence, how does the TetR repression strength read?
Its TetR repression strength is 0.0305.

Which TetR repression strength does the source give for TCCCGGGCAGTTAGGGAGA here?
The TetR repression strength was 0.442.

TCCCCAGAAGTGTACGAGA was tested. Which TetR repression strength did it give?
Its TetR repression strength is 0.174.

How did the TetR repression strength turn out when TCCCCCGGAGTCCAGGAGA was run?
The TetR repression strength was 0.104.

With TCCCGCATAGTTATAGAGA as the sequence, how does the TetR repression strength read?
The TetR repression strength was 0.31.

Which TetR repression strength does the source give for TCCCCCTTAGTCGATGAGA here?
Its TetR repression strength is 0.318.

With TCCCGTCGAGTCCCGGAGA as the sequence, how does the TetR repression strength read?
The TetR repression strength was 0.402.

How did the TetR repression strength turn out when TCCCGACTAGTGGGGGAGA was run?
The TetR repression strength was 0.264.

TCCCGTAAAGTACGTGAGA was tested. Which TetR repression strength did it give?
Its TetR repression strength is 0.116.

How did the TetR repression strength turn out when TCCCTAATAGTCAGTGAGA was run?
Its TetR repression strength is 0.206.

For TCCCTGGGAGTGCAGGAGA, which TetR repression strength is on record?
The TetR repression strength was 0.171.

How did the TetR repression strength turn out when TCCCAGTCAGTGGATGAGA was run?
The TetR repression strength was 0.267.

For TCCCAACAAGTATGTGAGA, which TetR repression strength is on record?
Its TetR repression strength is 0.162.

TCCCGGGCAGTGCCTGAGA was tested. Which TetR repression strength did it give?
Its TetR repression strength is 0.283.

TCCCCGCTAGTGGATGAGA was tested. Which TetR repression strength did it give?
The TetR repression strength was 0.286.
